# Results published in ChEMBL document CHEMBL4888484, “Replenishing the malaria drug discovery pipeline: Screening and hit evaluation of the MMV Hit Generation Library 1 (HGL1) against asexual blood stage Plasmodium falciparum ,using a nano luciferase reporter read-out” (2022).
# “And” between values parts separate entries of the source, which are not always exact repeats. Equal entries are not always repeated. Hit rate of the full screen: of about 150,000 compounds, about 540 (0.36%) showed an effect of 50% or more. Some of the results follow.
# System: Plasmodium falciparum
# Test: Primary screen in NF54 nanoGlo assay, in single point, at 2uM, 72h; a lower Z score goes with more inhibition
# Format: functional, Erythrocyte
# Conditions: timepoint 72 hour
SMILES,% Inhibition [%],Z score,% Inhibition (2 µM)
CN(Cc1csc(-c2ccccc2)n1)C(=O)[C@@H](N)Cc1c[nH]cn1,-10,1.29,
Cc1ccc(NC(=O)C/C(N)=N/O)cc1,,,0% and -2%
Cn1ccnc1[C@@H](NCCNc1ccccn1)C1CC1,-7,0.88,
CCn1nccc1C(=O)N1C2CCC1Cn1c(nn(Cc3ccccc3)c1=O)C2 (stereo not drawn),5,-0.64,
CC(C)(C)CN1C[C@@H](NCc2ncc[nH]2)CC1=O,-12,1.52,
COc1nc(NC(=O)c2cc3ccccc3o2)n[nH]1,-9,1.87,
CCOc1ccc([C@H]2CC(=O)Nc3c(S(=O)(=O)c4cccc(C)c4)csc32)cc1OC,-15,1.55,
O=C(CS(=O)(=O)c1ccc2ccccc2c1)N(c1ccccc1)c1ccccc1,0,-0.05,
Cc1nc2c(c(NCc3ccccc3Cl)n1)CCC2,2,-0.24,
CCOCCN1CCN(C(=O)C2CCS(=O)(=O)CC2)C[C@@H]1C,4,-0.5,
COCCCCS(=O)(=O)NC1CC2CCCc3cccc1c32 (stereo not drawn),-1,0.07,
O=C(c1ccc2c(c1)OCO2)N1Cc2cccnc2C1,-8,0.98,
CCn1nncc1CNC(=O)Nc1cc(C(F)(F)F)nn1C,-3,0.4,
O=C(NCC1(O)CCC1)[C@H]1CCn2cncc2C1,-8,1.39,
CCC1C(c2ccc(C)cc2)CCN1C(=O)c1nc(=O)[nH][nH]1 (stereo not drawn),-2,0.19,
CCc1cnc(CN2CCC(OC3CCC3)CC2)s1,-7,0.94,
CC(C)(C)c1ccc(-c2nn3c(nc2=O)-c2ccccc2N[C@]3(C)c2ccc(Cl)cc2)cc1,-5,0.65,
Cc1cnc(CCNC(=O)c2cn(C)cn2)n1C1CCCCCCC1,3,-0.47,
Cc1sc(CCNC(=O)NC2CC2)nc1-c1ccccc1,-2,0.25,

SMILES,% Inhibition [%],Z score,% Inhibition (2 µM)
CN(C)Cc1nnc([C@H]2C[C@@H](NC(=O)c3cnc4ccccc4n3)C2)n1C,-11,1.79,
O=C(c1ccccc1F)N1CCN(c2nc(-c3ccc(Cl)cc3)no2)CC1,5,-0.76,
CCn1ccc2c(CN3CCC4(CC3)CNC(=O)C4)cccc21,-1,0.22,
O=C(c1cc[nH]c(=O)c1)N1CCC[C@H]1c1ccc(Cl)c(Cl)c1,-1,0.21,
O=C(NC1CC2CC1C1CCCC21)N1CCC(C(=O)N2CCCC2)C1 (stereo not drawn),-20,2.61,
COc1ccc(NCc2ccc3c(c2)OCCO3)cn1,-2,0.29,
O=C(NCCc1cccnc1)c1ccncc1F,-7,1.24,
COCc1nsc(N2CCN(Cc3ccccc3Cl)CC2)n1,-11,1.45,
CC(C)(C)CC1(NC(=O)CCc2cn[nH]c2)CC1,-17,2.2,
COc1ccc(O)c([C@H](C)NCc2nnc3n2CCCCC3)c1,-8,0.75,
CCC[C@H]1CN(C(C)=O)C[C@@H]1NC(=O)c1c(C)cccc1OC,-8,1.3,
O=S(=O)(NCc1ccccc1-c1ccsc1)c1ccccc1,-8,1.51,
Cn1ccc([C@H]2CCCN(C(=O)c3cccc(-n4cnnn4)c3)C2)n1,-20,2.36,
COCC(C)(C)C(=O)N1CC[C@H](O)C(F)(F)C1,-11,1.98,
Cc1noc2nc(CCC(=O)NCc3cccnc3)nc(N3CCCCC3)c12,-11,1.7,
c1csc(-c2nnc(-c3ccc4ccccc4c3)c3nocc23)c1,-8,0.9,
CC(=O)c1cccc(NC(=O)CNC(C)(C)C(C)(C)O)c1,-5,0.86,
CN(C(=O)NCCc1nccn1Cc1ccccc1)C1CCC(C)(C)CC1,-1,0.18,
CCNC(=O)N(Cc1ccc(F)cc1)Cc1cc(NC(=O)CC)ccc1N(C)C,-18,3.48,

SMILES,% Inhibition [%],Z score,% Inhibition (2 µM)
CCCc1cnc(C)nc1-c1ccnc2c1ccn2C,-4,0.73,
Cc1cc(S(=O)(=O)N2CC(=O)Nc3cccnc32)sc1Cl,-3,0.55,
Cc1ccc(CNC(=O)c2c(C)oc3ccn(Cc4cccc(F)c4)c(=O)c23)cc1,7,-1.07,
Cc1noc(C)c1S(=O)(=O)NC[C@@H](c1ccco1)N1CCCC1,35,-3.92,
CCC[C@H]1CN(Cc2cnc(-c3cccc(C)c3)nc2)C[C@@H]1NC(C)=O,7,-1,
CC(NS(=O)(=O)CC(C)C(C)(C)C)c1nncn1C (stereo not drawn),-8,0.88,
Cc1noc(C)c1S(=O)(=O)NCc1cnn2ccccc12,-6,1.09,
CCC(NC(=O)Cc1ccc(C)c(C)c1)[C@H]1C[C@H](O)C1 (stereo partly drawn),-1,0.14,
CN1CCCCC[C@H]1C(=O)N[C@H]1CC[C@H](O)CC1,-25,2.2,
O=C1[C@@H]2CCCN2S(=O)(=O)N1CC1CCC2(CC1)OCCO2,-10,1.22,
O=C(NCC1CC12CCc1ccccc12)c1ccc2nncn2c1 (stereo not drawn),-2,0.28,
Cn1cc(C(=O)N2CCc3[nH]c(-c4cccc(F)c4)nc3C2)cn1,2,-0.18,
O=C(c1ccc(OC(F)F)nc1)N1CCO[C@H](c2ncon2)C1,-6,0.96,
CCCC1CC(C(=O)NC(C)C(C)CO)CCO1 (stereo not drawn),-6,1.18,
COCCNC(=O)c1cc2n(n1)CCCN(Cc1cccc(C)c1)C2=O,-8,1.39,
CCc1[nH]nc(-c2ccccc2OC)c1NC(=O)CC1CCCC1,-18,1.8,
CCc1nsc(Nc2cnn(CCN3CCCCC3)c2)n1,-2,0.33,
COc1cccc(-c2nc(CCN)no2)c1OC,-6,0.82,
CC(C)N(C)C(=O)N1Cc2ccccc2C[C@@H]1C,2,-0.21,
